From the supplement of paper PMC5998384 come the findings set out here.

The test system of data set [1] is HeLa Kyoto. Kind of data set: melting temperature (median over replicates), in situ; higher = more thermally stable.
Data set [2] has as its system HeLa Kyoto. As to the kind of experiment: solubility in G1/S (NP-40 vs SDS abundance) (log2 ratio); higher = more soluble. The note with it: cell cycle stage: G1/S.
The subject of data set [3] is HeLa Kyoto. As to the kind of experiment: thermal stability score vs G1/S (z-score of summed log2 fold changes over temperatures); higher = more thermally stable than in G1/S.
In data set [4] the test system is HeLa Kyoto. As to the kind of experiment: solubility change mitosis vs G1/S (difference of NP-40 vs SDS log2 ratios) (log2 ratio difference); higher = more soluble in mitosis.
Setting [5] is: cell cycle stage: early G1 (4.5 h after nocodazole release).
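Throughout, for melting temperature (median over replicates), in situ: HeLa Kyoto cells synchronized by double thymidine or nocodazole block, proteins quantified by TMT10plex mass spectrometry, three independent biological replicates.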
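Throughout, for solubility change mitosis vs G1/S (difference of NP-40 vs SDS log2 ratios): synchronized HeLa Kyoto cells (double thymidine block for G1/S, nocodazole release for mitosis), protein amounts in NP-40 versus SDS lysates quantified by mass spectrometry, three biological replicates.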
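Throughout, for solubility in G1/S (NP-40 vs SDS abundance): HeLa Kyoto cells arrested at G1/S by double thymidine block, proteins quantified by TMT10plex mass spectrometry in mild NP-40 versus SDS extracts, three biological replicates.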
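Throughout, for thermal stability score vs G1/S (z-score of summed log2 fold changes over temperatures): synchronized HeLa Kyoto cells, proteins quantified by TMT10plex mass spectrometry, three biological replicates, mitosis taken 0.5 h after nocodazole release, G1/S directly after double thymidine block.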

On to AIFM1 (sequence left out), for which the melting temperature with HeLa Kyoto [1] (cell cycle stage: G1/S) was found to be 57.2 °C; with HeLa Kyoto [1] (cell cycle stage: mitosis), 56.6 °C. Besides, the “solubility in G1/S (log2)” value in the data set on HeLa Kyoto [2] is -0.0455. Besides, the thermal stability score was -0.277 with HeLa Kyoto [3] (setting [5]) and -2.42 with HeLa Kyoto [3] (cell cycle stage: mitosis). Further, the “solubility change mitosis (log2)” value with HeLa Kyoto [4] was -0.0597.
For the substance ANXA11 (sequence left out), the melting temperature turned out to be 49.7 °C in the data set with HeLa Kyoto [1] (cell cycle stage: G1/S) and 49.9 °C in the data set on HeLa Kyoto [1] (cell cycle stage: mitosis). In addition, the “solubility in G1/S (log2)” value in the data set on HeLa Kyoto [2] amounted to 0.51. The figures for the thermal stability score in the data set with HeLa Kyoto [3] (setting [5]) and in the data set on HeLa Kyoto [3] (cell cycle stage: mitosis) were 6.32 and 3.34, respectively. In addition, the “solubility change mitosis (log2)” value in the data set with HeLa Kyoto [4] was -0.0255.
Regarding CCNT1 (sequence left out), the melting temperature in the data set with HeLa Kyoto [1] (cell cycle stage: G1/S) amounted to 49.4 °C; in the data set on HeLa Kyoto [1] (cell cycle stage: mitosis), 50.7 °C. In addition, the “solubility in G1/S (log2)” value in the data set with HeLa Kyoto [2] was -0.202. Further, the figures for the thermal stability score in the data set on HeLa Kyoto [3] (setting [5]) and in the data set with HeLa Kyoto [3] (cell cycle stage: mitosis) were -0.151 and 0.079, respectively. Also, the “solubility change mitosis (log2)” value with HeLa Kyoto [4] worked out at 0.0923.
COX7C (sequence left out): the melting temperature with HeLa Kyoto [1] (cell cycle stage: G1/S) was found to be 57.4 °C. The “solubility in G1/S (log2)” value with HeLa Kyoto [2] was -1.31. The “solubility change mitosis (log2)” value in the data set with HeLa Kyoto [4] is 0.382.
Take DSC2 (sequence left out): the values for the melting temperature with HeLa Kyoto [1] (cell cycle stage: G1/S) and in the data set with HeLa Kyoto [1] (cell cycle stage: mitosis) were 54 °C and 53.3 °C, respectively. The “solubility in G1/S (log2)” value with HeLa Kyoto [2] is -0.135. Also, the thermal stability score in the data set on HeLa Kyoto [3] (setting [5]) was determined as 1.57; in the data set with HeLa Kyoto [3] (cell cycle stage: mitosis) it was 1.77. Also, the “solubility change mitosis (log2)” value in the data set on HeLa Kyoto [4] is -0.18.
Consider EEF1G (sequence left out), for which the melting temperature with HeLa Kyoto [1] (cell cycle stage: G1/S) came to 50.7 °C; in the data set on HeLa Kyoto [1] (cell cycle stage: mitosis), 50.2 °C. For the same substance, the “solubility in G1/S (log2)” value in the data set with HeLa Kyoto [2] turned out to be 0.0423. The thermal stability score with HeLa Kyoto [3] (setting [5]) is -1.32; in the data set on HeLa Kyoto [3] (cell cycle stage: mitosis), 1.53. Besides, in the data set on HeLa Kyoto [4], the “solubility change mitosis (log2)” value is -0.104.
With ENO1 (sequence left out), the figures for the melting temperature in the data set on HeLa Kyoto [1] (cell cycle stage: G1/S) and with HeLa Kyoto [1] (cell cycle stage: mitosis) were 56.7 °C and 56.4 °C, respectively. In the data set on HeLa Kyoto [2], the “solubility in G1/S (log2)” value amounted to 0.304. The thermal stability score in the data set with HeLa Kyoto [3] (setting [5]) was -1.37; with HeLa Kyoto [3] (cell cycle stage: mitosis) it was -2.11. Also, the “solubility change mitosis (log2)” value in the data set on HeLa Kyoto [4] was -0.0594.
As for EXOC1 (sequence left out), the melting temperature in the data set with HeLa Kyoto [1] (cell cycle stage: G1/S) is 49.7 °C; in the data set on HeLa Kyoto [1] (cell cycle stage: mitosis), 49.6 °C. The “solubility in G1/S (log2)” value in the data set with HeLa Kyoto [2] was 0.0898. For the same substance, the thermal stability score in the data set on HeLa Kyoto [3] (setting [5]) came out at 0.396; in the data set with HeLa Kyoto [3] (cell cycle stage: mitosis), 0.824. In addition, the “solubility change mitosis (log2)” value in the data set on HeLa Kyoto [4] is -0.0858.
As for FGF2 (sequence left out), the “solubility in G1/S (log2)” value in the data set with HeLa Kyoto [2] is -0.559. The thermal stability score with HeLa Kyoto [3] (setting [5]) is -0.938; in the data set with HeLa Kyoto [3] (cell cycle stage: mitosis) it was -1.72. Besides, the “solubility change mitosis (log2)” value with HeLa Kyoto [4] amounted to 0.153.
As to MUC1 (sequence left out), the thermal stability score in the data set with HeLa Kyoto [3] (setting [5]) was -1.25; with HeLa Kyoto [3] (cell cycle stage: mitosis), -0.51.
Consider NDUFB8 (sequence left out), for which, in the data set on HeLa Kyoto [2], the “solubility in G1/S (log2)” value is -0.0495. Further, the “solubility change mitosis (log2)” value with HeLa Kyoto [4] was found to be 0.213.
With PCF11 (sequence left out), the melting temperature in the data set on HeLa Kyoto [1] (cell cycle stage: G1/S) was determined as 49.2 °C; in the data set with HeLa Kyoto [1] (cell cycle stage: mitosis), 48.8 °C. In the data set on HeLa Kyoto [2], the “solubility in G1/S (log2)” value is -0.00629. The “solubility change mitosis (log2)” value in the data set with HeLa Kyoto [4] came to 0.0692.
On to ROR1 (sequence left out), for which the “solubility in G1/S (log2)” value in the data set with HeLa Kyoto [2] is 0.0441. Further, the “solubility change mitosis (log2)” value with HeLa Kyoto [4] is -0.00946.
In the same order, the values of RPS6KA5 (sequence left out) are -0.0552 and -0.117.
Take RPS6KB1 (sequence left out): in the data set with HeLa Kyoto [2], the “solubility in G1/S (log2)” value was -0.0413. Further, the results for the thermal stability score in the data set on HeLa Kyoto [3] (setting [5]) and in the data set with HeLa Kyoto [3] (cell cycle stage: mitosis) were 0.051 and -0.087, respectively. In addition, the “solubility change mitosis (log2)” value with HeLa Kyoto [4] amounted to 0.0814.
On to STIM2 (sequence left out), for which, in the data set with HeLa Kyoto [2], the “solubility in G1/S (log2)” value is 0.14. For the same substance, in the data set on HeLa Kyoto [4], the “solubility change mitosis (log2)” value is -0.12.
With SUMO2 (sequence left out), in the data set on HeLa Kyoto [1] (cell cycle stage: G1/S), the melting temperature is 54.4 °C. In addition, in the data set with HeLa Kyoto [2], the “solubility in G1/S (log2)” value was -0.482. For the same substance, the “solubility change mitosis (log2)” value with HeLa Kyoto [4] was 0.314.
For the substance YAP1 (sequence left out), the values for the melting temperature in the data set with HeLa Kyoto [1] (cell cycle stage: G1/S) and in the data set with HeLa Kyoto [1] (cell cycle stage: mitosis) were 56.1 °C and 52.7 °C, respectively. In addition, the “solubility in G1/S (log2)” value in the data set on HeLa Kyoto [2] stood at 0.206. Also, the “solubility change mitosis (log2)” value with HeLa Kyoto [4] was found to be 0.176.
